Test results reported in PubChem BioAssay AID2546 (National Center for Advancing Translational Sciences (NCATS), 2010).
Screen size: about 310,000 compounds; about 11,000 (3.5%) were called active. Inconclusive means that the source gave no clear call. Such entries were picked first, then a sample of the others. Calls follow the shape of the dose curve; as a rule, active = well fitted inhibition curve with a large enough effect; inconclusive = small, poorly fitted or top-dose-only effect, or effect the other way; inactive = flat fitted curve, though single readings scatter. Potencies of inconclusive entries are left out as doubtful fits.
Potency is read from the fitted curve at half-maximal effect; tags tell the direction and shape of the fitted curve.

Experiment: VP16 counterscreen qHTS for inhibitors of ROR gamma transcriptional activity;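 also: Gal4-VP16 expression switched on by copper sulfate through the metallothionein promoter; nearly all actives have a fitted effect of over 50% in size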
Conditions: Drosophila S2 Gal4-VP16 UAS-luciferase, luminescence, 20 h; series mostly up to 53.6 µM
In the case of `Cc1ccc(-c2nc3cccnc3s2)cc1NC(=O)C1c2ccccc2Oc2ccccc21`, the Potency was active: 11.2 µM. With `Cn1c(C(=O)c2ccccc2)nc2ccccc21` the Potency was “inactive”. For `Cc1cc(CN(C)C(=O)c2cc(COc3ccc(F)cc3Cl)on2)n[nH]1`, the Potency was inconclusive [activator, full curve]. For `Cc1ccc(S(=O)(=O)N(C)C)cc1NC(=S)NC(C)CCC(C)C` (configuration not stated), the Potency was inconclusive [inhibitor, single point]. For `COc1cccc(CCNC(=O)c2cccc(NC(=O)C3=C(C)OCCS3)c2)c1`, the Potency was “inactive”. For `COc1ccccc1[N+](=O)[O-]`, the Potency was “inactive”. For `O=C(NC(=S)Nc1ccccc1N1CCOCC1)c1ccc(-c2cc(Cl)ccc2Cl)o1`, the Potency was active: 2.51 µM. For `Cc1ccc(NC(=S)NC2CC3CCCC(C2)N3Cc2cccs2)cc1` (configuration not stated), the Potency was inconclusive [inhibitor, single point]. With `COc1cc(Cl)ccc1S(=O)(=O)n1nc(C)cc1C` the Potency was inconclusive [inhibitor, single point]. For `CCCN1CCN(CCCNC(=O)Cn2nc(C)n3c(cc4cc(OC)ccc43)c2=O)CC1`, the Potency was “inactive”. In the case of `Cc1ccc2nc(-c3ccc(SCC(=O)Nc4nnc(C)s4)nc3)[nH]c2c1`, the Potency was inconclusive [inhibitor, single point]. With `O=C(/C=C/C#Cc1cccc(NS(=O)(=O)c2ccccc2)c1)NO` the Potency was inconclusive [inhibitor, full curve]. For `COc1cc(OC)c(OC)cc1C=NCC1(c2ccccc2)CCCC1`, the Potency was “inactive”. For `Cc1ccc(C(=O)N2CC(=O)Nc3ccc(C)cc3C2c2ccccc2)cc1` (configuration not stated), the Potency was “inactive”. With `CNC(=O)C1CC(=O)N(c2ccc(OCC(=O)NCc3ccccc3)cc2)C1` (configuration not stated) the Potency was inconclusive [activator, single point]. For `COc1ccc(CCN(C)C(=S)Nc2ccc(SC(F)F)cc2)cc1OC`, the Potency was inconclusive [inhibitor, single point]. For `Cc1cc(C(=O)NC(=S)Nc2cccc(NC(=O)C(C)C)c2)ccc1[N+](=O)[O-]`, the Potency was inconclusive [inhibitor, single point]. With `O=C(C1CCCCC1)N(Cc1nc2sc3c(c2c(=O)[nH]1)CCCC3)Cc1cccs1` the Potency was inconclusive [inhibitor, single point]. In the case of `O=C1c2ccccc2N2C(=O)c3ccccc3C2N1O` (configuration not stated), the Potency was inconclusive [inhibitor, single point]. For `Cc1cccc(Nc2nc(CC(=O)O)cs2)c1`, the Potency was inconclusive [activator, partial curve, poor fit]. In the case of `N#Cc1cccc(Nc2c3c(nc4ccccc24)CCCC3)c1`, the Potency was inconclusive [inhibitor, single point]. With `O=C(Nc1ccc(S(=O)(=O)NCC2CCCO2)cc1)c1ccc(Cl)cc1[N+](=O)[O-]` (configuration not stated) the Potency was inconclusive [inhibitor, single point]. In the case of `CC(=O)c1cccc(NC(=O)CN2CCc3cc4c(cc3C2C)OCCCO4)c1` (configuration not stated), the Potency was “inactive”. For `COc1c(F)c(F)c(C(=O)Nc2ccc(-c3nc4ccccc4[nH]3)cc2)c(F)c1F`, the Potency was inconclusive [inhibitor, partial curve]. In the case of `O=C(N/N=C/c1ccccn1)c1cccs1`, the Potency was inconclusive [inhibitor, single point]. In the case of `Cc1ccc(N=C2NC(=O)/C(=C/c3cccs3)S2)cc1C`, the Potency was inconclusive [inhibitor, single point]. With `CCC(C)NS(=O)(=O)c1ccc(S(=O)(=O)N(CCc2ccc(OC)c(OC)c2)Cc2cccs2)cc1` (configuration not stated) the Potency was inconclusive [inhibitor, partial curve]. In the case of `Cc1ccc(N2C(=O)C(Cl)=C(N3CCOCC3)C2=O)c(C)c1`, the Potency was “inactive”. With `CCCCCn1c(=O)c(-c2nc3ccccc3[nH]2)c(O)c2ccccc21` the Potency was active: 7.94 µM. For `Cc1cc(C)n(-c2nc3ccccc3nc2N2CCC(C)CC2)n1`, the Potency was inconclusive [inhibitor, single point]. For `CC(C)CNC(=S)NNC(=O)c1nn(C)cc1Cl`, the Potency was inconclusive [inhibitor, single point]. In the case of `Clc1nnc(NN=C2CCCC2)c2ccccc12`, the Potency was inconclusive [inhibitor, single point]. In the case of `O=C1C2C3C=CC(C3)C2C(=O)N1c1ccc(Cc2ccncc2)cc1` (configuration not stated), the Potency was active: 22.4 µM. For `O=C(CSc1n[nH]c(-c2ccccn2)n1)Nc1ccccc1F`, the Potency was active: 5.01 µM. In the case of `COc1ccc(C(C(=O)NCC2CCCO2)N(Cc2cccs2)C(=O)c2snc(C(N)=O)c2N)cc1OC` (configuration not stated), the Potency was “inactive”. With `O=C(NCCc1c[nH]c2ccccc12)c1ccc2c(c1)OCO2` the Potency was “inactive”. In the case of `C=CCn1c(NC(=O)c2ccccc2Cl)c(C#N)c2nc3ccccc3nc21`, the Potency was inconclusive [inhibitor, single point]. For `Cc1cccc(NCC(=O)NNC(=S)Nc2ccccc2)c1`, the Potency was inconclusive [inhibitor, single point]. With `COc1ccc(NC(=O)C#Cc2ccccc2)cc1` the Potency was inconclusive [activator, single point]. For `O=[N+]([O-])c1cc(S(=O)(=O)N2CCCC2)ccc1NN=C1CCCCC1`, the Potency was “inactive”. With `Cc1ccc(C(=S)N2CCCCCC2)cc1` the Potency was inconclusive [inhibitor, single point]. With `CCCn1c(C)nc2cc(Cl)c(N3CCN(c4nc(-c5ccc(C)cc5)cs4)CC3)cc21` the Potency was inconclusive [inhibitor, single point]. With `CC(C)n1c(=S)[nH]c2ccccc2c1=O` the Potency was active: 3.98 µM. In the case of `COc1cc(C(O)c2nc3ccccc3s2)cc(OC)c1OC` (configuration not stated), the Potency was active: 10 µM. In the case of `O=[N+]([O-])c1ccc(C(O)CN=Cc2ccc(O)cc2O)cc1` (configuration not stated), the Potency was inconclusive [inhibitor, single point]. In the case of `O=C(CSCc1ccc(Cl)cc1)N/N=C/c1c(Cl)cccc1Cl`, the Potency was inconclusive [inhibitor, single point]. For `COc1ccccc1NC(=S)NCCSc1ccc(C)cc1`, the Potency was active: 11.2 µM. With `FC(F)(F)c1ccc(-n2cn[nH]c2=S)cc1` the Potency was inconclusive [inhibitor, single point]. With `COc1cc(C(=O)O/N=C2\CCCc3c2ccc(OC)c3[N+](=O)[O-])cc(OC)c1OC` the Potency was “inactive”. With `COc1ccc(-n2cc(-c3ccccc3)[n+]3c2CCCCC3)cc1` the Potency was inconclusive [inhibitor, single point]. With `Clc1ccc2nc(CSc3nc4ccccc4o3)cn2c1` the Potency was inconclusive [inhibitor, single point]. In the case of `Cc1ccc(Cn2ccc(NC(=O)c3nn(C)cc3Cl)n2)cc1`, the Potency was “inactive”. For `O=S(=O)(O)c1cc(O)c2c(O)c(N=Nc3cc(Cl)ccc3O)c(S(=O)(=O)O)cc2c1`, the Potency was inconclusive [inhibitor, partial curve]. With `Cc1cc(C2=CC(C)(c3cc(C)oc3C)Nc3nc(C(F)(F)F)nn32)c(C)o1` (configuration not stated) the Potency was “inactive”. For `NC(=O)CC(NC(=O)Cc1ccc(Br)cc1)c1ccc(N2CCC(Cc3ccccc3)CC2)c([N+](=O)[O-])c1` (configuration not stated), the Potency was inconclusive [inhibitor, single point]. For `CS(=O)(=O)c1cccc(NC(=O)c2ccc(Cl)c(Cl)c2)c1`, the Potency was inconclusive [activator, single point]. In the case of `CN(C)c1nc(OCCNC(=O)Nc2ccccc2)nc(N2CCCCC2)n1`, the Potency was “inactive”. In the case of `COc1ccc(/C=C2\CN(Cc3ccccc3)C/C(=C\c3ccc(OC)c(O)c3)C2=O)cc1O`, the Potency was inconclusive [inhibitor, single point]. With `CC(SCc1cn2cc(Cl)ccc2n1)C(=O)O` (configuration not stated) the Potency was inconclusive [inhibitor, partial curve]. For `CC(C)OC(=O)/C(C#N)=C/c1c[nH]c2ccccc12`, the Potency was inconclusive [inhibitor, single point]. For `O=C(N/N=C/c1cn(Cc2ccccc2)c2ccccc12)c1ccncc1`, the Potency was inconclusive [inhibitor, single point]. In the case of `CC(C)NC(=S)N/N=C/C1=CCC2CC1C2(C)C` (configuration not stated), the Potency was active: 1.78 µM. With `COc1cc(CNC2CCCC2)cc(Cl)c1OCc1ccc(F)cc1` the Potency was “inactive”. In the case of `CCn1c(/C=C/c2ccc([N+](=O)[O-])o2)nc2ccccc2c1=O`, the Potency was active: 11.2 µM. For `CC(=O)Nc1ccc(S(=O)(=O)N2CCN(c3cc4c(cc3[N+](=O)[O-])n(C)c(=O)n4C)CC2)cc1`, the Potency was inconclusive [inhibitor, single point]. For `CC1CCN(C(=S)c2cn(Cc3ccc(F)cc3)c3ccccc23)CC1`, the Potency was active: 11.2 µM. For `CN(C)CCCN(C(=O)c1ccc(Cl)s1)c1nc2cc3c(cc2s1)OCO3`, the Potency was inconclusive [inhibitor, single point]. For `COc1ccc(CN2CCC(CO)(Cc3ccccc3)CC2)cc1Cn1cccn1`, the Potency was inconclusive [inhibitor, single point]. For `CC1CCCN(C(=S)Nc2ccc(Nc3ccccc3)cc2)C1` (configuration not stated), the Potency was inconclusive [inhibitor, single point]. With `COc1ccc(OCc2cc(C(=O)N(C)Cc3cnccn3)no2)c(Cl)c1` the Potency was “inactive”. With `Cc1cccc(N2CCN(C(=O)c3cccc(N4C(=O)C5CC=CC(C)C5C4=O)c3)CC2)c1C` (configuration not stated) the Potency was inconclusive [inhibitor, single point]. In the case of `COc1ccccc1-c1nc(NCc2cccs2)c2ccccc2n1`, the Potency was inconclusive [inhibitor, single point].
